Positions count from the first letter of the chain named.
B1: NEG0012: humanized anti-P-cadherin antibody, heavy chain SEQ ID NO:29, light chain SEQ ID NO:39 (antibody)
heavy: EVQLVQSGAEVKKPGESLKISCKVSGYTFTDHTIHWMRQMPGKGLEWMGYIYPRSGSINYNEKFKGQVTISADKSSSTAYLQWSSLKASDTAMYYCARRNLFLPMEYWGQGTLVTVSSASTKGPSVFPLAPSSKSTSGGTAALGCLVKDYFPEPVTVSWNSGALTSGVHTFPAVLQSSGLYSLSSVVTVPSSSLGTQTYICNVNHKPSNTKVDKRV[human IgG1 Fc not printed]
light: DIVMTQTPLSLPVTPGEPASISCRSSQSLLSSGDQKNYLTWYLQKPGQSPQLLIYWASTRESGVPDRFSGSGSGTDFTLKISRVEAEDVGVYYCQNDYRYPLTFGQGTKLEIKRTVAAPSVFIFPPSDEQLKSGTASVVCLLNNFYPREAKVQWKVDNALQSGNSQESVTEQDSKDSTYSLSSTLTLSKADYEKHKVYACEVTHQGLSSPVTKSFNRGEC
B2: NEG0012-MCC-DM1 (conjugate)
heavy: B1 heavy
light: B1 light
B3: NEG0013: humanized anti-P-cadherin antibody, heavy chain SEQ ID NO:49, light chain SEQ ID NO:59 (antibody)
heavy: B1 heavy
light: B1 light with D34N, R99S
B4: NEG0016: humanized anti-P-cadherin antibody, heavy chain SEQ ID NO:69, light chain SEQ ID NO:79 (antibody)
heavy: QIQLVQSGAEVKKPGSSVKVSCKVSGYTFTDHTLHWMRQAPGQGLEWMGYIYPRSGSTKYNENFRGRVTITADTSSSTAYMELSSLRSEDTAVYYCARRLLFLPLDYWGQGTLVTVSSASTKGPSVFPLAPSSKSTSGGTAALGCLVKDYFPEPVTVSWNSGALTSGVHTFPAVLQSSGLYSLSSVVTVPSSSLGTQTYICNVNHKPSNTKVDKRV[human IgG1 Fc not printed]
light: EIVMTQSPATLSLSPGERATLSCRSSQSLLSSGNQKSYLTWYQQKPGQAPRLLIYWASTRESGIPARFSGSGSGTDFTLTISSLQPEDFAVYYCQNDYSYPFTFGQGTKLEIKRTVAAPSVFIFPPSDEQLKSGTASVVCLLNNFYPREAKVQWKVDNALQSGNSQESVTEQDSKDSTYSLSSTLTLSKADYEKHKVYACEVTHQGLSSPVTKSFNRGEC
B5: NEG0067-MCC-DM1 (conjugate)
heavy: B4 heavy with R65K, A97V
light: B4 light
B6: NEG0064: humanized anti-P-cadherin antibody, heavy chain SEQ ID NO:89, light chain SEQ ID NO:99 (antibody)
heavy: B4 heavy with A97V
light: B4 light
B7: NEG0067: humanized anti-P-cadherin antibody, heavy chain SEQ ID NO:109, light chain SEQ ID NO:119 (antibody)
heavy: B4 heavy with R65K, A97V
light: B4 light

What was measured:
Human P-cadherin ECD = target: T1, Human P-cadherin ECD (Homo sapiens, UniProt P22223); experiment: SPR (Biacore) affinity, antibody captured on Protein A; type: binding
T1 construct: 108-652-TAG; host or cells: Tn5 insect cells, baculovirus
Protocol: The affinity of various antibodies and antibody drug conjugates (in Ab-MCC-DM1 format) to P-cadherin and its species orthologues was determined using SPR technology using a Biacore® T100 instrument (GE Healthcare, Pittsburgh, Pa.) or a Biacore® 2000 instrument (GE Healthcare, Pittsburgh, Pa.) using CM5 sensor chips.
Briefly, HBS-P^+ (0.01 M HEPES, pH 7.4, 0.15 M NaCl, 0.05% Surfactant P20) supplemented with 2% Odyssey® blocking buffer (Li-Cor Biosciences, Lincoln, Nebr.) was used as the running buffer for all the experiments on the Biacore® T100 instrument. HBS-P (0.01 M HEPES, pH 7.4, 0.15 M NaCl, 0.005% Surfactant P20) supplemented with 2% Odyssey® blocking buffer was used as the running buffer for all the experiments on the Biacore® 2000 instrument. The immobilization level and analyte interactions were measured by response unit (RU). Pilot experiments were performed to test and confirm the feasibility of the immobilization of Protein A (GE Healthcare, Pittsburgh, Pa.) and the capture of the test antibodies.
For kinetic measurements, experiments were performed in which the antibodies were captured to the sensor chip surface via the immobilized Protein A and the ability of the P-cadherin proteins to bind in free solution was determined. Briefly, 28 μg/ml of Protein A at pH 4.5 was immobilized on a CM5 sensor chip through amine coupling at flow rate of 10 μl/minute on two flow cells to reach 2300-3300 RUs. 0.01-0.25 μg/ml of test antibodies was then injected at 5 μl/min for 3 minute. Captured levels of the antibodies were generally kept below 400 RUs. Subsequently, 6.25-100 nM of P-cadherin ECD was diluted in a 2-fold series and injected at a flow rate of 40 μl/min for 2-4 min over both reference and test flow cells. Table 11 of tested ECDs is listed below. Dissociation of the binding was followed for 5 min. After each injection cycle, the chip surface was regenerated with PBS/6 M Guanidine HCl, pH 7.4 at 100 μl/min for 45 seconds. […] Experiments that were ran on the Biacore® 2000 instrument were globally fitted with a simple 1:1 interaction model using Scrubber 2 ® software version 2.0b (BioLogic Software) to obtain estimates of on rate (ka), off-rate (kd) and affinity (KD)

[1] = tested on: HCC70 triple negative breast cancer xenograft; experiment: HCC70 TNBC xenograft, ADC efficacy screening; type: in vivo, mouse; details: 7 mg/kg single IV, day 42
Protocol: A representative photo of P-cadherin immunostaining on HCC70 tumors is shown to visualize the staining pattern in this xenograft model (FIG. 11A). IHC was performed using a Ventana Discovery XT autostainer. Sections of formalin fixed, paraffin embedded tumors were deparaffinized, treated with the Ventana Cell Conditioning #1 (CCIS) antigen retrieval reagent and then incubated for 60 minutes at room temperature in the primary antibody [mouse monoclonal anti-human P-cad antibody from BD Transduction Lab (Cat#610228, Lot 09934)] at a concentration of 10 ug/ml. This was followed by incubation with a biotinylated goat anti-mouse (Jackson Laboratories, cat#115-066-072, Lot#63620) used at working concentration of 1:250 was performed. Detection was performed using DAB Map Kit (Ventana Medical, cat#760-124). A non-specific mouse IgG antibody (Vector Laboratories Cat#1-2000, Lot# V0610) was used as a control to ensure that staining observed with the P-cadherin antibody was specific.
The 7 mg/kg dose level was selected as it was expected to provide a window to discern difference among ADC candidates in this model. Doses were adjusted to individual mouse body weights. The IV dose volume was 8 ml/kg.

[2] = tested on: HCC70 breast cancer xenograft; experiment: HCC70 xenograft, linker comparison MCC versus CX1-1; type: in vivo, mouse; details: 7 mg/kg single IV
Protocol: Doses were adjusted to individual mouse body weights. The IV dose volume was 8 ml/kg.

T1 sequence (P22223 108-652): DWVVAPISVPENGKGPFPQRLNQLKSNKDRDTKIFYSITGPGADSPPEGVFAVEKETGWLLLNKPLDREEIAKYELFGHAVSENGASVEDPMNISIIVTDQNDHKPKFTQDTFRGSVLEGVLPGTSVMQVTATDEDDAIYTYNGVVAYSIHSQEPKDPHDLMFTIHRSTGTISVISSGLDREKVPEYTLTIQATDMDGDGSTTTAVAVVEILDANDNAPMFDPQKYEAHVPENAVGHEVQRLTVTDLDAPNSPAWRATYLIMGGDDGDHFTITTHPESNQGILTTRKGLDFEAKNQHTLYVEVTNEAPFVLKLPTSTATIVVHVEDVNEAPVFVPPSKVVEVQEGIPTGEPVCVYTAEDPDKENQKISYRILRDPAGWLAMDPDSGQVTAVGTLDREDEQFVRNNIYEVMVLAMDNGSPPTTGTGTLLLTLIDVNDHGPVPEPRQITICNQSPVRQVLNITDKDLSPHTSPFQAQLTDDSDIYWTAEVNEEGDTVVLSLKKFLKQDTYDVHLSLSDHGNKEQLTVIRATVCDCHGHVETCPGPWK

Molecule | reaction with human P-cadherin (Human P-cadherin ECD) | other results
B1 | nanomolar level | –
B2 | – | mean tumor volume versus isotype-matched huIgG1-MCC-DM1 control group [1]: significantly different
B3 | nanomolar level | –
B4 | nanomolar level | –
B5 | – | mean tumor volume versus linker-matched control IgG1 ADC group [2]: not statistically different
B6 | nanomolar level | –
B7 | nanomolar level | –

— patent US10005836B2, “Antibody drug conjugates” (Novartis AG, priority 2014, dated 2018)
